# From the supplement of paper PMC8728848
# Some of the results follow.
# B1: PpFlo1 (Pichia pastoris) (protein)
# chain: MGSSHHHHHHSSGLVPRGSHMQESGDGDISDSAYACDIDATRYDGFNATIYEFQPGDGRLTRDPVFMSTGYLNRTQLHSITGVTDPGFSIYTPGVPTTTLYGIPNVNWENLLLELKGYFRAEVSGDYGLSLRNIDDSAILFFGKETAFQCCNENSISNEASTDYSLFTIFRQEGDETTNLDSFTYTQYLEAGKYYPVRTFFVNIERHAVFNFTMTLPDGTELTDFHNYIYQFGALDEEQCQA
# Assays:
# Test in all cases: glycan array binding signal (z-score within array); higher = stronger binding
# Details in all cases: glycan notation: IUPAC condensed, linker removed
# [1] = target: GlcNAc(b1-2)Man(a1-3)[GlcNAc(b1-4)][GlcNAc(b1-2)Man(a1-6)]Man(b1-4)GlcNAc(b1-4)[Fuc(a1-6)]GlcNAc
# In short: (§1)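 Columns mapping to the same glycan were averaged after glycan names were converted to IUPAC-condensed notation. The data come from 3228 arrays in the Consortium for Functional Glycomics database, limited to those with an available protein sequence. Binding is reported as a within-array Z-score averaged across arrays of one protein sequence and across linkers.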
# [2] = target: GlcNAc(b1-2)[GlcNAc(b1-4)]Man(a1-3)[GlcNAc(b1-2)Man(a1-6)]Man(b1-4)GlcNAc(b1-4)GlcNAc
# In short: as §1
# [3] = target: GlcNAc(b1-2)[GlcNAc(b1-4)]Man(a1-3)[GlcNAc(b1-4)][GlcNAc(b1-2)Man(a1-6)]Man(b1-4)GlcNAc(b1-4)GlcNAc
# In short: as §1
# [4] = target: GlcNAc(b1-2)[GlcNAc(b1-4)]Man(a1-3)[GlcNAc(b1-4)][GlcNAc(b1-2)[GlcNAc(b1-6)]Man(a1-6)]Man(b1-4)GlcNAc(b1-4)GlcNAc
# In short: as §1
# [5] = target: GlcNAc(b1-2)[GlcNAc(b1-4)]Man(a1-3)[GlcNAc(b1-4)][GlcNAc(b1-2)[GlcNAc(b1-6)]Man(a1-6)]Man(b1-4)GlcNAc(b1-4)[Fuc(a1-6)]GlcNAc
# In short: as §1
# [6] = target: GlcNAc(b1-2)[GlcNAc(b1-6)]Man(a1-6)[GlcNAc(b1-2)Man(a1-3)]Man(b1-4)GlcNAc(b1-4)GlcNAc
# In short: as §1
# [7] = target: GlcNAc(b1-2)[GlcNAc(b1-6)]Man(a1-6)[GlcNAc(b1-2)Man(a1-3)]Man(b1-4)GlcNAc(b1-4)[Fuc(a1-6)]GlcNAc
# In short: as §1
# [8] = target: GlcNAc(b1-2)[GlcNAc(b1-6)]Man(a1-6)[GlcNAc(b1-2)Man(a1-3)][GlcNAc(b1-4)]Man(b1-4)GlcNAc(b1-4)GlcNAc
# In short: as §1
# [9] = target: GlcNAc(b1-2)[GlcNAc(b1-6)]Man(a1-6)[GlcNAc(b1-4)][GlcNAc(b1-2)Man(a1-3)]Man(b1-4)GlcNAc(b1-4)GlcNAc
# In short: as §1
# GlcNAc(b1-3)Fuc = target: GlcNAc(b1-3)Fuc
# In short: as §1
# GlcNAc(b1-3)Gal = target: GlcNAc(b1-3)Gal
# In short: as §1
# [10] = target: GlcNAc(b1-3)Gal(b1-3)GalNAc
# In short: as §1
# GlcNAc(b1-3)Gal(b1-4)Glc = target: GlcNAc(b1-3)Gal(b1-4)Glc
# In short: as §1
# [11] = target: GlcNAc(b1-3)Gal(b1-4)GlcNAc
# In short: as §1
# [12] = target: GlcNAc(b1-3)Gal(b1-4)GlcNAc(b1-2)Man(a1-3)[GlcNAc(b1-3)Gal(b1-4)GlcNAc(b1-2)Man(a1-6)]Man(b1-4)GlcNAc(b1-4)GlcNAc
# In short: as §1
# [13] = target: GlcNAc(b1-3)Gal(b1-4)GlcNAc(b1-2)Man(a1-3)[GlcNAc(b1-3)Gal(b1-4)GlcNAc(b1-2)Man(a1-6)]Man(b1-4)GlcNAc(b1-4)[Fuc(a1-6)]GlcNAc
# In short: as §1
# [14] = target: GlcNAc(b1-3)Gal(b1-4)GlcNAc(b1-2)[GlcNAc(b1-3)Gal(b1-4)GlcNAc(b1-6)]Man(a1-6)[GlcNAc(b1-3)Gal(b1-4)GlcNAc(b1-2)Man(a1-3)]Man(b1-4)GlcNAc(b1-4)GlcNAc
# In short: as §1
# [15] = target: GlcNAc(b1-3)Gal(b1-4)GlcNAc(b1-3)Gal(b1-4)GlcNAc
# In short: as §1
# [16] = target: GlcNAc(b1-3)Gal(b1-4)GlcNAc(b1-3)Gal(b1-4)GlcNAc(b1-2)Man(a1-3)[GlcNAc(b1-3)Gal(b1-4)GlcNAc(b1-3)Gal(b1-4)GlcNAc(b1-2)Man(a1-6)]Man(b1-4)GlcNAc(b1-4)GlcNAc
# In short: as §1
# [17] = target: GlcNAc(b1-3)Gal(b1-4)GlcNAc(b1-3)Gal(b1-4)GlcNAc(b1-2)Man(a1-3)[GlcNAc(b1-3)Gal(b1-4)GlcNAc(b1-3)Gal(b1-4)GlcNAc(b1-2)Man(a1-6)]Man(b1-4)GlcNAc(b1-4)[Fuc(a1-6)]GlcNAc
# In short: as §1
# [18] = target: GlcNAc(b1-3)Gal(b1-4)GlcNAc(b1-3)Gal(b1-4)GlcNAc(b1-2)[GlcNAc(b1-3)Gal(b1-4)GlcNAc(b1-3)Gal(b1-4)GlcNAc(b1-6)]Man(a1-6)[GlcNAc(b1-3)Gal(b1-4)GlcNAc(b1-3)Gal(b1-4)GlcNAc(b1-2)Man(a1-3)]Man(b1-4)GlcNAc(b1-4)[Fuc(a1-6)]GlcNAc
# In short: as §1
# [19] = target: GlcNAc(b1-3)Gal(b1-4)GlcNAc(b1-3)Gal(b1-4)GlcNAc(b1-3)Gal(b1-4)GlcNAc(b1-2)Man(a1-3)[GlcNAc(b1-3)Gal(b1-4)GlcNAc(b1-3)Gal(b1-4)GlcNAc(b1-3)Gal(b1-4)GlcNAc(b1-2)Man(a1-6)]Man(b1-4)GlcNAc(b1-4)GlcNAc
# In short: as §1
# [20] = target: GlcNAc(b1-3)Gal(b1-4)GlcNAc(b1-3)Gal(b1-4)GlcNAc(b1-3)Gal(b1-4)GlcNAc(b1-2)Man(a1-3)[GlcNAc(b1-3)Gal(b1-4)GlcNAc(b1-3)Gal(b1-4)GlcNAc(b1-3)Gal(b1-4)GlcNAc(b1-2)Man(a1-6)]Man(b1-4)GlcNAc(b1-4)[Fuc(a1-6)]GlcNAc
# In short: as §1
# [21] = target: GlcNAc(b1-3)Gal(b1-4)GlcNAc(b1-3)Gal(b1-4)GlcNAc(b1-3)Gal(b1-4)GlcNAc(b1-2)[GlcNAc(b1-3)Gal(b1-4)GlcNAc(b1-3)Gal(b1-4)GlcNAc(b1-3)Gal(b1-4)GlcNAc(b1-6)]Man(a1-6)[GlcNAc(b1-3)Gal(b1-4)GlcNAc(b1-3)Gal(b1-4)GlcNAc(b1-3)Gal(b1-4)GlcNAc(b1-2)Man(a1-3)]Man(b1-4)GlcNAc(b1-4)[Fuc(a1-6)]GlcNAc
# In short: as §1
# [22] = target: GlcNAc(b1-3)Gal(b1-4)GlcNAc(b1-3)Gal(b1-4)GlcNAc(b1-3)Gal(b1-4)GlcNAc(b1-3)Gal(b1-4)GlcNAc(b1-2)Man(a1-3)[GlcNAc(b1-3)Gal(b1-4)GlcNAc(b1-3)Gal(b1-4)GlcNAc(b1-3)Gal(b1-4)GlcNAc(b1-3)Gal(b1-4)GlcNAc(b1-2)Man(a1-6)]Man(b1-4)GlcNAc(b1-4)GlcNAc
# In short: as §1
# [23] = target: GlcNAc(b1-3)Gal(b1-4)GlcNAc(b1-3)Gal(b1-4)GlcNAc(b1-3)Gal(b1-4)GlcNAc(b1-3)Gal(b1-4)GlcNAc(b1-2)Man(a1-3)[GlcNAc(b1-3)Gal(b1-4)GlcNAc(b1-3)Gal(b1-4)GlcNAc(b1-3)Gal(b1-4)GlcNAc(b1-3)Gal(b1-4)GlcNAc(b1-2)Man(a1-6)]Man(b1-4)GlcNAc(b1-4)[Fuc(a1-6)]GlcNAc
# In short: as §1
# [24] = target: GlcNAc(b1-3)Gal(b1-4)GlcNAc(b1-3)Gal(b1-4)GlcNAc(b1-3)Gal(b1-4)GlcNAc(b1-3)Gal(b1-4)GlcNAc(b1-2)[GlcNAc(b1-3)Gal(b1-4)GlcNAc(b1-3)Gal(b1-4)GlcNAc(b1-3)Gal(b1-4)GlcNAc(b1-3)Gal(b1-4)GlcNAc(b1-6)]Man(a1-6)[GlcNAc(b1-3)Gal(b1-4)GlcNAc(b1-3)Gal(b1-4)GlcNAc(b1-3)Gal(b1-4)GlcNAc(b1-3)Gal(b1-4)GlcNAc(b1-2)Man(a1-3)]Man(b1-4)GlcNAc(b1-4)[Fuc(a1-6)]GlcNAc
# In short: as §1
# [25] = target: GlcNAc(b1-3)Gal(b1-4)GlcNAc(b1-3)Gal(b1-4)GlcNAc(b1-3)GalNAc
# In short: as §1
# [26] = target: GlcNAc(b1-3)Gal(b1-4)GlcNAc(b1-3)GalNAc
# In short: as §1
# [27] = target: GlcNAc(b1-3)Gal(b1-4)GlcNAc(b1-3)[GlcNAc(b1-3)Gal(b1-4)GlcNAc(b1-3)]GalNAc
# In short: as §1
# [28] = target: GlcNAc(b1-3)Gal(b1-4)GlcNAc(b1-6)[Gal(b1-3)]GalNAc
# In short: as §1
# [29] = target: GlcNAc(b1-3)Gal(b1-4)GlcNAc(b1-6)[GlcNAc(b1-3)Gal(b1-3)]GalNAc
# In short: as §1
# [30] = target: GlcNAc(b1-3)Gal(b1-4)GlcNAc(b1-6)[GlcNAc(b1-3)]Gal(b1-4)GlcNAc
# In short: as §1
# GlcNAc(b1-3)GalNAc = target: GlcNAc(b1-3)GalNAc
# In short: as §1
# GlcNAc(b1-3)Man = target: GlcNAc(b1-3)Man
# In short: as §1
# [31] = target: GlcNAc(b1-3)[GlcNAc(b1-4)][GlcNAc(b1-6)]GlcNAc
# In short: as §1
# [32] = target: GlcNAc(b1-3)[GlcNAc(b1-6)]Gal(b1-4)GlcNAc
# In short: as §1
# [33] = target: GlcNAc(b1-3)[GlcNAc(b1-6)]GalNAc
# In short: as §1
binder,measurement,setting,value
B1,glycan array binding signal (z-score),[1],-0.503
same,glycan array binding signal (z-score),[2],-0.171
same,glycan array binding signal (z-score),[3],1.17
same,glycan array binding signal (z-score),[4],-0.337
same,glycan array binding signal (z-score),[5],-0.195
same,glycan array binding signal (z-score),[6],-0.18
same,glycan array binding signal (z-score),[7],0.03
same,glycan array binding signal (z-score),[8],-0.522
same,glycan array binding signal (z-score),[9],0.009
same,glycan array binding signal (z-score),GlcNAc(b1-3)Fuc,-0.291
same,glycan array binding signal (z-score),GlcNAc(b1-3)Gal,0.242
same,glycan array binding signal (z-score),[10],0.218
same,glycan array binding signal (z-score),GlcNAc(b1-3)Gal(b1-4)Glc,-0.244
same,glycan array binding signal (z-score),[11],0.154
same,glycan array binding signal (z-score),[12],0.121
same,glycan array binding signal (z-score),[13],-0.131
same,glycan array binding signal (z-score),[14],-0.213
same,glycan array binding signal (z-score),[15],0.551
same,glycan array binding signal (z-score),[16],0.609
same,glycan array binding signal (z-score),[17],0.579
same,glycan array binding signal (z-score),[18],0.35
same,glycan array binding signal (z-score),[19],-0.321
same,glycan array binding signal (z-score),[20],0.586
same,glycan array binding signal (z-score),[21],0.172
same,glycan array binding signal (z-score),[22],-0.543
same,glycan array binding signal (z-score),[23],0.114
same,glycan array binding signal (z-score),[24],0.567
same,glycan array binding signal (z-score),[25],-0.514
same,glycan array binding signal (z-score),[26],-0.449
same,glycan array binding signal (z-score),[27],-0.39
same,glycan array binding signal (z-score),[28],-0.189
same,glycan array binding signal (z-score),[29],-0.294
same,glycan array binding signal (z-score),[30],-0.394
same,glycan array binding signal (z-score),GlcNAc(b1-3)GalNAc,0.281
same,glycan array binding signal (z-score),GlcNAc(b1-3)Man,1.9
same,glycan array binding signal (z-score),[31],0.131
same,glycan array binding signal (z-score),[32],1.26
same,glycan array binding signal (z-score),[33],0.217
